The values below come from patent publication US20240148892A1 (DUALITY BIOLOGICS SUZHOU, published 2024).

The target in test [1] is T1, human full-length B7H3 expressed on MCF-7 cells (human, UniProt Q5ZPR3 29-534).
T1 sequence: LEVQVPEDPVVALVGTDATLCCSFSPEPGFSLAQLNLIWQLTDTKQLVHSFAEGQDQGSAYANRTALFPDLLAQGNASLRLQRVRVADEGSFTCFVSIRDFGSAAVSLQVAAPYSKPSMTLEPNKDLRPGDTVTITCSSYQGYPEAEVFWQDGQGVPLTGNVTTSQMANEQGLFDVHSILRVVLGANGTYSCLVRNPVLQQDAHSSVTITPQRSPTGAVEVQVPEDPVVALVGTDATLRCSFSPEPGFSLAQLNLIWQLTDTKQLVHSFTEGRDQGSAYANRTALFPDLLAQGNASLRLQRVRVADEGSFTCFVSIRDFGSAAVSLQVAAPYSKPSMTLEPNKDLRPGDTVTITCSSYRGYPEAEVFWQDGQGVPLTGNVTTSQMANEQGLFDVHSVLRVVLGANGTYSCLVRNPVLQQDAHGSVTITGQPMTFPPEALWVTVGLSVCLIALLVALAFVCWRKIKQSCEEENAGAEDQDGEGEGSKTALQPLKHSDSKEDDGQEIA
The test is described as follows: cell-based or functional assay.

For test [2], the target named is T2, Human PD-L1, His Tag (human, UniProt Q9NZQ7 part only).
T2 construct: Bought protein; also called human PD-L1 protein; ACRO PD1-H5229; not shown: His tag
The test is described as follows: ELISA, B7 family protein immobilized on plate, serially diluted antibody-drug conjugate. How it is done: (§1) Human PD-Ll protein (see the table above), human B7-H2 protein, human B7-H3 protein, human B7-H4 protein, human B7-H5 protein, human B7-H6 protein, human B7-1 protein, human B7-2 protein, human PD-L2 protein, human B7-H7 protein, and human BTNL2 protein were separately immobilized on 96-well plates by incubation at 4° C. overnight. The 96-well plates were then blocked by incubation with 1% BSA in PBS at 37° C. for 1 h. After blocking, the 96-well plates were washed 3 times with PBST (PBS containing 0.05% Tween 20). […] After incubation, the 96-well plates were washed 3 times with PBST, incubated with a secondary antibody (see the table above) in binding buffer at 37° C. for 1 h, and then washed again. TMB was added for color development, and the reaction was stopped by 1 M H₂SO₄.
(In an ELISA, binding on a coated surface is turned into a signal by an enzyme label.)

The target in test [3] is T3, Human B7-H2, His Tag (human, UniProt O75144 19-258).
T3 construct: Bought protein; also called human B7-H2 protein; ACRO B72-H5221; not shown: His tag
T3 sequence (looked up): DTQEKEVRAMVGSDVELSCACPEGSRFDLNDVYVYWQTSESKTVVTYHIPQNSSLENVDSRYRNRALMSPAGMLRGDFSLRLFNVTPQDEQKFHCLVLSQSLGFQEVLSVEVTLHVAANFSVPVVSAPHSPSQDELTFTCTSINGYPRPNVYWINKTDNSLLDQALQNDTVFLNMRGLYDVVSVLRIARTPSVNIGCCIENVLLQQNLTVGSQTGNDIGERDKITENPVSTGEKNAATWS
The test is described as above. How it is done: as §1

For test [4], the target named is T4, Human B7-H4 protein, His Tag (human, UniProt Q7Z7D3 29-258).
T4 construct: Bought protein; also called ACRO B74-H5222; not shown: His tag
T4 sequence (looked up): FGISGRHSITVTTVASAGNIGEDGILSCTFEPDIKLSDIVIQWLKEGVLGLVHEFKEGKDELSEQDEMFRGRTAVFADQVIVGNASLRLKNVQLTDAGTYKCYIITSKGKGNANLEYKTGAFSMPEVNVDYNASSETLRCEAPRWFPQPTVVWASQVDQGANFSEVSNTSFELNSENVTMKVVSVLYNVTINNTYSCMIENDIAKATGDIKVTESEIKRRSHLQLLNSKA
The description is as above. The protocol: as §1

Test [5] concerns the target T5, Human B7-H5, His Tag (human, UniProt Q9H7M9 33-194).
T5 construct: Bought protein; also called human B7-H5 protein; ACRO B75-H52H0; not shown: His tag
T5 sequence (looked up): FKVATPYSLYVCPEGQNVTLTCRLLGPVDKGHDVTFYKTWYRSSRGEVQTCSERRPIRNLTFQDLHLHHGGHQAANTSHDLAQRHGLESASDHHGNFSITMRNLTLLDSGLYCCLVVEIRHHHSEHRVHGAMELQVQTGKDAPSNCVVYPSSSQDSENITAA
The description is as above. How it is done: as §1

Test [6] deals with T6, Human B7-H6 (human, UniProt Q68D85 25-262).
T6 construct: Bought protein; also called human B7-H6 protein; ACRO B76-H52H8
T6 sequence (looked up): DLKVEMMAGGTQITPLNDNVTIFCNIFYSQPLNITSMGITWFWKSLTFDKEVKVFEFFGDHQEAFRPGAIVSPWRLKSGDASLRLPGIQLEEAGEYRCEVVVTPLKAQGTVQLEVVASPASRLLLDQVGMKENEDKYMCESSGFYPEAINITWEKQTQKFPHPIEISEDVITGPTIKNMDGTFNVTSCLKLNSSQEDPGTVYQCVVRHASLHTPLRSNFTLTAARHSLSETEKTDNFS
The description is as above. How it is done:
as §1

Test [7] has as its target T7, Human B7-1 protein, His Tag (human, UniProt P33681 35-242).
T7 construct: Bought protein; also called ACRO B71-H5228; not shown: His tag
T7 sequence (looked up): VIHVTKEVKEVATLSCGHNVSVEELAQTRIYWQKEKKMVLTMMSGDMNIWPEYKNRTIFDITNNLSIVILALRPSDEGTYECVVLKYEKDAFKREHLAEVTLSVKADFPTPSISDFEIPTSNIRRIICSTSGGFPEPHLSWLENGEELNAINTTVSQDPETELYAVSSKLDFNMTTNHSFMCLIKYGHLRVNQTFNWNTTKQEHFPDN
The description is as above. How it is done: as §1

In test [8] the target is T8, Human B7-2 protein, His Tag (human, UniProt P42081 24-247).
T8 construct: Bought protein; also called ACRO CD6-H5223; not shown: His tag
T8 sequence (looked up): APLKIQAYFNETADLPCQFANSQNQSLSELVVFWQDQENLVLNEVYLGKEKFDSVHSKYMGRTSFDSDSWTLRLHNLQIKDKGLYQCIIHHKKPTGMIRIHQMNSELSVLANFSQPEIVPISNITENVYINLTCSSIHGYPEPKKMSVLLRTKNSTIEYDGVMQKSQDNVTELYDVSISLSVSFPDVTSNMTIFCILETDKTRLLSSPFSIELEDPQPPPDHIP
The test is described as above. How it is done: as §1

The target of test [9] is T9, Human PD-L2, His Tag (confirmed by SPR) (human, UniProt Q9BQ51 20-219).
T9 construct: Bought protein; also called human PD-L2 protein; ACRO PD2-H5220; not shown: His tag
T9 sequence (looked up): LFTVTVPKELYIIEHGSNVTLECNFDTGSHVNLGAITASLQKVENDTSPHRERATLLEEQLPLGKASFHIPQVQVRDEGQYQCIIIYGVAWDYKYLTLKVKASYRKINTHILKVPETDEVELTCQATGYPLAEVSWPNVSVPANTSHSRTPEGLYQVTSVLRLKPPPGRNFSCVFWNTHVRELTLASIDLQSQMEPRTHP
The test is described as above. How it is done: as §1

The target of test [10] is T10, Human B7-H7, His Tag (human, UniProt Q9UM44 23-344).
T10 construct: Bought protein; also called human B7-H7 protein; ACRO B77-H52H5; not shown: His tag
T10 sequence (looked up): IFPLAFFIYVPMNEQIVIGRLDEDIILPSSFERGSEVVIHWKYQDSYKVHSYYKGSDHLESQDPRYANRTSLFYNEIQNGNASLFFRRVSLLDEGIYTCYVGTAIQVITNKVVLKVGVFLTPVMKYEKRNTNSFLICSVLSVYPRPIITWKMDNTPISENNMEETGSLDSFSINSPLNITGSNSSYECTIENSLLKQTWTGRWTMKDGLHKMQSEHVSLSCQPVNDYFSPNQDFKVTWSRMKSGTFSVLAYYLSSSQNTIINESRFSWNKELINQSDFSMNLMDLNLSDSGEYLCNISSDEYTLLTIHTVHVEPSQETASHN
The test is described as above. How it is done: as §1

T2 sequence (Q9NZQ7 19-238 limits assumed): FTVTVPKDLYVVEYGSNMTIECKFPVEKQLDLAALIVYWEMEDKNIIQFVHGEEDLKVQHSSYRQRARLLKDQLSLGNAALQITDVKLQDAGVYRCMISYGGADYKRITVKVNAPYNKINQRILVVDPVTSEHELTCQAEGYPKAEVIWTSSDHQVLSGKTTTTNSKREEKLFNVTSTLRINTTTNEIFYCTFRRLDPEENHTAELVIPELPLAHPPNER

B1: antibody-drug conjugate WBP301088-X2 (DAR6) (other)
heavy: QVQLQESGPGLVKPSQTLSLTCTVTDYSITGDYAWNWIRQHPGKGLEWIGYISYSGSTSYNPSLQSRVTISRDTSKNQFSLKLSSVTAADTAVYFCARSLGRRWYFVVWGQGTTVTVSSASTKGPSVFPLAPSSKSTSGGTAALGCLVKDYFPEPVTVSWNSGALTSGVHTFPAVLQSSGLYSLSSVVTVPSSSLGTQTYICNVNHKPSNTKVDKRV[not shown - human IgG1 Fc with changes]
light: DIVMTQSPDSLAVSLGERATINCKSSQSLLQSSNQKNYLAWYQQKPGQPPKLLIYFASTRESGVPDRFSGSGSGTDFTLTISSLQAEDVAVYYCQQHYSAPWTFGGGTKVEIKRTVAAPSVFIFPPSDEQLKSGTASVVCLLNNFYPREAKVQWKVDNALQSGNSQESVTEQDSKDSTYSLSSTLTLSKADYEKHKVYACEVTHQGLSSPVTKSFNRGEC
modifications: linker-payload X2 conjugated after TCEP reduction of the antibody; drug loading (DAR) 5.68; positions not given
notes: also called Anti-B7H3 ADC WBP301088-X2 (DAR6)
Take B1: the “IC50 of inhibition of proliferation, A375 melanoma cells (CellTiter-Glo)” value in test [1] stood at 165 nM. The “IC50 of inhibition of proliferation, A549 lung cancer cells (CellTiter-Glo)” value in test [1] was 369 nM. Further, the “IC50 of inhibition of proliferation, CAL-120 breast cancer cells (CellTiter-Glo)” value in test [1] is 269 nM. Further, the “IC50 of inhibition of proliferation, Calu-6 lung cancer cells (CellTiter-Glo)” value in test [1] worked out at 52.3 nM. In addition, the “IC50 of inhibition of proliferation, HT-29 colorectal cancer cells (CellTiter-Glo)” value in [1] amounted to 446 nM. For the same molecule, the “IC50 of inhibition of proliferation, MCF-7 breast cancer cells (CellTiter-Glo)” value in test [1] was 55.5 nM. Also, the “IC50 of inhibition of proliferation, NCI-H358 lung cancer cells (CellTiter-Glo)” value in test [1] was 11.4 nM. Also, the “IC50 of inhibition of proliferation, PC-3 prostate cancer cells (CellTiter-Glo)” value in test [1] stood at 181 nM. In addition, the “IC50 of inhibition of proliferation, U87 MG brain cancer cells (CellTiter-Glo)” value in test [1] came out at 86.5 nM. Further, the binding result in test [2], in test [3], in test [4], in [5], in test [6] and in test [7] was “no binding” in each case. Further, the binding result in test [8], in test [9] and in test [10] was “no binding” in each case.
